Measured values from PubChem BioAssay AID1645882 (National Center for Advancing Translational Sciences (NCATS), 2021).
Screen size: about 16,000 compounds; about 120 (0.75%) were called active. Not shown: some 4% with an inconclusive outcome. Calls follow the shape of the dose curve; as a rule, active = well fitted inhibition curve with a large enough effect; inconclusive = small, poorly fitted or top-dose-only effect; inactive = no such curve, though single readings can be large or run the other way. Some of the results follow.

What follows are molecules tested against Rap guanine nucleotide exchange factor 3 (Homo sapiens) (UniProt O95398) (assay: Validation qHTS for antagonist of cAMP-regulated guanine nucleotide exchange factor 3 (EPAC1)). Conditions: EPAC1 Rap1B-BODIPY-GDP exchange, fluorescence; series mostly up to 150 µM; activity change, negative = inhibition: at the top concentration.
Outline: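 Nucleotide exchange followed as fluorescence loss when BODIPY-GDP leaves Rap1B (480 nm excitation, 540 nm emission), read at 5 min intervals over 30 min. Reaction: 100 nM EPAC1, 250 nM RAP1B-BODIPY-GDP, 50 uM GDP; ATA and DMSO define normalization.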
Also: nearly all actives have a fitted effect of over 75% in size.
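For activity change, negative = inhibition in this document: plate controls were DMSO for no effect and ATA control for full effect.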
Potency is read from the fitted curve at half-maximal effect.

Sequence of UniProt O95398 (O95398 whole entry, looked up): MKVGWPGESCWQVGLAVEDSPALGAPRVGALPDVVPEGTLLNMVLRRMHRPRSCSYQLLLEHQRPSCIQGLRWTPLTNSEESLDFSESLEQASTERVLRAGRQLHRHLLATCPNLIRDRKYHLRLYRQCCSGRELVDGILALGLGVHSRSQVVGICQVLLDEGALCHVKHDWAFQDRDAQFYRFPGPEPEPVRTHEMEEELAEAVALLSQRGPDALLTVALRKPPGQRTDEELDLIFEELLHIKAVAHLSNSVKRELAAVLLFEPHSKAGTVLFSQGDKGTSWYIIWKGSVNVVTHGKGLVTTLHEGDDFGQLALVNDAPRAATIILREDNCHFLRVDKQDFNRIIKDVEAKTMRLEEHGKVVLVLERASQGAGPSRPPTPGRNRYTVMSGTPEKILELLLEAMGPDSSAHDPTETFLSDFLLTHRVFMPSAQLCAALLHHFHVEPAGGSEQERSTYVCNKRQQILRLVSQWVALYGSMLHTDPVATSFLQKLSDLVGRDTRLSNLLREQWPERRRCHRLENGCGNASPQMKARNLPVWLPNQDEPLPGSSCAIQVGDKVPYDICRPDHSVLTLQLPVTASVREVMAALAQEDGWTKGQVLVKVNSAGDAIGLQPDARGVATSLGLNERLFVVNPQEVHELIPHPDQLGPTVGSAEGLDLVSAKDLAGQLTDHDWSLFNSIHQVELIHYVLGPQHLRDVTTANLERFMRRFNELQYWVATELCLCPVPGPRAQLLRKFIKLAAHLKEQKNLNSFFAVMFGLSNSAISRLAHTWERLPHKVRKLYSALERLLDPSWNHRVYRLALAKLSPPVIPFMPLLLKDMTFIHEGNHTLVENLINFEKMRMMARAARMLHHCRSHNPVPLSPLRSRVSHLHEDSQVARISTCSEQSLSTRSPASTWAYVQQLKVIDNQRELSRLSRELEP

SMILES	activity change, negative = inhibition	Potency
CCOC(=O)C[C@H]1c2cc(F)ccc2S(=O)(=O)N1Cc1ccc(OC)cc1	inactive: 7.01%	
CCN(CC)CCOC[C@H]1O[C@@H](O)[C@H](OCCN(CC)CC)[C@@H](O)[C@@H]1O	inactive: 17.7%	
NCC1O[C@@H](OC2C(N)C[C@H](N)[C@@H](O[C@H]3OC(CO)C(O)C(N)C3O)C2O)C(O)C(O)C1O (stereo not given in full)	inactive: 13.6%	
COc1ccc(-c2nc3cc(F)ccc3cc2CN(C(=O)c2ccc3c(c2)OCO3)C2CC2)cc1	inactive: -1.01%	
COc1ccc(NC(=O)N2CC3(CCN(C(C)=O)CC3)C2)cc1	inactive: 12.5%	
CC(C)CC(N)C(=O)NC(C)C(=O)O (stereo not given)	inactive: 18.6%	
Cc1noc(C)c1-c1ccc2ncnc(NCc3cccs3)c2c1	inactive: 3.14%	
COC(=O)N1CCC2(CC1)CN(C(=O)Nc1cccc(F)c1)C2	inactive: 13.7%	
COc1cc([C@@H]2c3cc4c(cc3C(OC3OC5COC(C)OC5C(O)C3O)C3COC(=O)[C@@H]32)OCO4)cc(OC)c1O (stereo not given in full)	inactive: 11.4%	
CNc1nc(-c2ccc(C(=O)N(C)C)cc2)nc2ccccc12	inactive: -10.7%	
CC(=O)[C@@]1(O)CC[C@H]2[C@@H]3CCC4=CC(=O)CC[C@]4(C)[C@H]3CC[C@@]21C	inactive	
CC(NC(=O)c1cc(F)ccc1F)c1nnc2n1CCN(Cc1ccccc1O)CC2 (stereo not given)	inactive: -2.53%	
COc1cccc(-c2ccnc(-n3ncc(C(=O)NCc4cccnc4)c3C3CC3)n2)c1	inactive: 12.6%	
COCc1c(C(=O)NC2CCCCC2)cnn1-c1nccc(-c2ccccc2OC)n1	inactive: 7.41%	
N#Cc1cccc(NC(=O)N2CCCC3(CCN(S(=O)(=O)c4ccccc4)CC3)C2)c1	inactive: 6.79%	
CC(=O)N1CCC2(CCN(Cc3ccncc3)CC2)CC1	inactive: 4.68%	
CNCCc1ccccn1	inactive	
C[C@@H]1CN(Cc2ccc3c(c2)CN(Cc2cccc(O)c2)CCO3)C[C@H](C)O1	inactive: 6.71%	
COc1ccc(Oc2ncc3ncc(=O)n(CCc4ccccc4)c3n2)cc1	inactive: 9.42%	
Cc1cccc2nc(CNC(=O)CN3Cc4ccccc4OC(c4ccccc4F)C3)cn12 (stereo not given)	inactive: 6.47%	
Cc1noc(C)c1C(=O)N1CCC2(CCN(Cc3ccncc3)CC2)CC1	inactive: 13.6%	
Cn1cc(-c2nc3cnc(N4CCNCC4)nc3n(C3CC3)c2=O)c2ccccc21	inactive: 26.5%	
CC1=C(C)C(=O)C(C(CCCCCC(=O)O)c2ccccc2)=C(C)C1=O (stereo not given)	inactive: 17.7%	
NCCCCCC(=O)O	inactive	
O=C1C[C@H]2C=CCc3cccc(c32)CN1Cc1cccc(F)c1	inactive: -19.8%	

SMILES	activity change, negative = inhibition	Potency
CN(C)c1ccc(/C=C/c2cc(Cl)nc3ccccc23)cc1	inactive: 26%	
CCc1ccc(S(=O)(=O)NCc2nc(N3CCCC3)c3cccc(C)c3n2)cc1	inactive: 3.42%	
CC(C)CN1CC2(CCN(C(=O)c3ccco3)CC2)C1	inactive: -0.364%	
Cc1cc(C)n(-c2cccc(C(=O)NCC3Cc4cccc(-c5cccnc5)c4O3)c2)n1 (stereo not given)	inactive: 6.83%	
CO[C@H]1[C@H](NC(=O)c2ccco2)c2ccccc2C12CCN(Cc1cnn(-c3ccccc3)c1)CC2	inactive: 3.88%	
CC(=O)OC/C=C(\C)CC/C=C(\C)CC/C=C(\C)CC/C=C(\C)CC/C=C(\C)CC/C=C(\C)CC/C=C(\C)CC/C=C(\C)CCC=C(C)C	inactive: 0.982%	
CN1CCN(c2ncc3nc(-c4cn(C)c5ccccc45)c(=O)n(-c4ccccc4)c3n2)CC1	inactive: 2.74%	
Cc1ccsc1C(=O)N(Cc1cc2cc3c(cc2nc1N1CCOCC1)CCC3)CC1CCCO1 (stereo not given)	inactive: 22%	
COC(=O)C1CCN(Cc2ccc3c(c2)CN(C(=O)c2cc(C)on2)CCO3)CC1	inactive: 17.4%	
Cc1cccc(CNc2cc(-c3ccccc3Cl)ncn2)c1	inactive: -6.95%	
CC1(C)Oc2ccc3ccc(=O)oc3c2CC1=O	inactive: 21.3%	
COC(=O)[C@@H]1CCCN1C(=O)c1cc(NC(=O)C2CCC2)c2c(c1)nc(-c1ccncc1)n2C	inactive: 9.33%	
COCCn1c(=O)c(-c2cccs2)nc2cnc(N(C)C)nc21	inactive: 39.6%	
CC(C)c1cccc(O)c(=O)c1	inactive	
CC12C(=O)OC(=O)C1(C)C1CCC2O1 (stereo not given)	inactive	
Nc1nc2c(ncn2COC(CO)CO)c(=O)[nH]1	inactive	
COCCn1c(=O)cnc2cnc(Nc3cccc(OC)c3)nc21	inactive: 8.34%	
COc1ccc(-c2cnc(-c3cccnc3)o2)cc1	inactive: -10.6%	
CCCCCCCCCCCCCCCC(=O)OC[C@H](O)[C@H]1OC(=O)C(O)=C1O	inactive: -24.4%	
Cc1cnc(-n2ncc(C(=O)NCc3ccncc3)c2C2CC2)nc1-c1cccs1	inactive: 19.6%	
CC1(C)C(=O)C=C[C@@]2(C)C1C=C[C@@]1(C)C2CC[C@@]2(C)C(c3ccoc3)OC(=O)C3OC312 (stereo not given in full)	inactive: 1.83%	
O=C1C[C@H]2C=CCc3cccc(c32)CN1Cc1ccc(Cl)cc1	inactive: -0.638%	
C[C@@H](C1[C@@H](O)CC2C3C=CC4C[C@@H](O)CC[C@]4(C)[C@H]3CC[C@@]21C)[C@@H]1CCCCN1 (stereo not given in full)	inactive: 28.2%	
COC(=O)C1CCN(c2nc(CN(C)C3CCOC3)nc3cc(OC)c(OC)cc23)CC1 (stereo not given)	inactive: 8.21%	
N#C/C(=C\c1ccc(O)c(O)c1)C(=O)NCCCCc1ccccc1		active: 100 µM
